# The list shows a part of the results.
# Key:
# Assay in all cases: glycan array binding signal (z-score within array); higher = stronger binding
# Conditions in all cases: glycan notation: IUPAC condensed, linker removed
# [1] = molecular target: GlcNAc(a1-4)Gal(b1-4)GlcNAc
# In short: (§1)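 Glycan array data were curated from 3228 arrays in the Consortium for Functional Glycomics database and kept only where the protein sequence was available. Glycan names were converted to IUPAC-condensed notation, and columns mapping to the same glycan were averaged. The binding signal is a within-array Z-score, averaged across arrays of the same protein sequence at different concentrations or buffers and across linkers. Negative Z-scores can be read as non-binding.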
# [2] = molecular target: GlcNAc(a1-4)Gal(b1-4)GlcNAc(b1-3)Gal(b1-4)Glc
# In short: as §1
# [3] = molecular target: GlcNAc(a1-4)Gal(b1-4)GlcNAc(b1-3)Gal(b1-4)GlcNAc
# In short: as §1
# [4] = molecular target: GlcNAc(a1-4)Gal(b1-4)GlcNAc(b1-3)Gal(b1-4)GlcNAc(b1-3)Gal(b1-4)GlcNAc
# In short: as §1
# [5] = molecular target: GlcNAc(a1-4)Gal(b1-4)GlcNAc(b1-3)Gal(b1-4)[Fuc(a1-3)]GlcNAc(b1-3)Gal(b1-4)[Fuc(a1-3)]GlcNAc
# In short: as §1
# [6] = molecular target: GlcNAc(a1-6)Gal(b1-4)GlcNAc
# In short: as §1
# [7] = molecular target: GlcNAc(b1-2)Gal(b1-3)GalNAc
# In short: as §1
# [8] = molecular target: GlcNAc(b1-2)Man(a1-3)[GlcNAc(b1-2)Man(a1-6)]Man(b1-4)GlcNAc(b1-4)GlcNAc
# In short: as §1
# [9] = molecular target: GlcNAc(b1-2)Man(a1-3)[GlcNAc(b1-2)Man(a1-6)]Man(b1-4)GlcNAc(b1-4)[Fuc(a1-6)]GlcNAc
# In short: as §1
# [10] = molecular target: GlcNAc(b1-2)Man(a1-3)[GlcNAc(b1-4)][GlcNAc(b1-2)Man(a1-6)]Man(b1-4)GlcNAc(b1-4)GlcNAc
# In short: as §1
# [11] = molecular target: GlcNAc(b1-2)Man(a1-3)[GlcNAc(b1-4)][GlcNAc(b1-2)Man(a1-6)]Man(b1-4)GlcNAc(b1-4)[Fuc(a1-6)]GlcNAc
# In short: as §1
# [12] = molecular target: GlcNAc(b1-2)[GlcNAc(b1-4)]Man(a1-3)[GlcNAc(b1-2)Man(a1-6)]Man(b1-4)GlcNAc(b1-4)GlcNAc
# In short: as §1
# [13] = molecular target: GlcNAc(b1-2)[GlcNAc(b1-4)]Man(a1-3)[GlcNAc(b1-4)][GlcNAc(b1-2)Man(a1-6)]Man(b1-4)GlcNAc(b1-4)GlcNAc
# In short: as §1
# [14] = molecular target: GlcNAc(b1-2)[GlcNAc(b1-4)]Man(a1-3)[GlcNAc(b1-4)][GlcNAc(b1-2)[GlcNAc(b1-6)]Man(a1-6)]Man(b1-4)GlcNAc(b1-4)GlcNAc
# In short: as §1
# [15] = molecular target: GlcNAc(b1-2)[GlcNAc(b1-4)]Man(a1-3)[GlcNAc(b1-4)][GlcNAc(b1-2)[GlcNAc(b1-6)]Man(a1-6)]Man(b1-4)GlcNAc(b1-4)[Fuc(a1-6)]GlcNAc
# In short: as §1
# [16] = molecular target: GlcNAc(b1-2)[GlcNAc(b1-6)]Man(a1-6)[GlcNAc(b1-2)Man(a1-3)]Man(b1-4)GlcNAc(b1-4)GlcNAc
# In short: as §1
# [17] = molecular target: GlcNAc(b1-2)[GlcNAc(b1-6)]Man(a1-6)[GlcNAc(b1-2)Man(a1-3)]Man(b1-4)GlcNAc(b1-4)[Fuc(a1-6)]GlcNAc
# In short: as §1
# [18] = molecular target: GlcNAc(b1-2)[GlcNAc(b1-6)]Man(a1-6)[GlcNAc(b1-4)][GlcNAc(b1-2)Man(a1-3)]Man(b1-4)GlcNAc(b1-4)GlcNAc
# In short: as §1
# [19] = molecular target: GlcNAc(b1-3)Fuc
# In short: as §1
# [20] = molecular target: GlcNAc(b1-3)Gal
# In short: as §1
# [21] = molecular target: GlcNAc(b1-3)Gal(b1-3)GalNAc
# In short: as §1
# [22] = molecular target: GlcNAc(b1-3)Gal(b1-4)Glc
# In short: as §1
binder,measurement,setting,value
"GNA (Galanthus nivalis), P30617 (protein) MAKASLLILAAIFLGVITPSCLSDNILYSGETLSTGEFLNYGSFVFIMQEDCNLVLYDVDKPIWATNTGGLSRSCFLSMQTDGNLVVYNPSNKPIWASNTGGQNGNYVCILQKDRNVVIYGTDRWATGTHTGLVGIPASPPSEKYPTAGKIKLVTAK",glycan array binding signal (z-score),[1],-0.099
same,glycan array binding signal (z-score),[2],-0.149
same,glycan array binding signal (z-score),[3],-0.235
same,glycan array binding signal (z-score),[4],-0.123
same,glycan array binding signal (z-score),[5],-0.002
same,glycan array binding signal (z-score),[6],-0.193
same,glycan array binding signal (z-score),[7],-0.205
same,glycan array binding signal (z-score),[8],1.14
same,glycan array binding signal (z-score),[9],-0.06
same,glycan array binding signal (z-score),[10],-0.171
same,glycan array binding signal (z-score),[11],-0.164
same,glycan array binding signal (z-score),[12],0.353
same,glycan array binding signal (z-score),[13],-0.183
same,glycan array binding signal (z-score),[14],-0.159
same,glycan array binding signal (z-score),[15],-0.185
same,glycan array binding signal (z-score),[16],-0.165
same,glycan array binding signal (z-score),[17],-0.156
same,glycan array binding signal (z-score),[18],-0.185
same,glycan array binding signal (z-score),[19],-0.16
same,glycan array binding signal (z-score),[20],-0.3
same,glycan array binding signal (z-score),[21],-0.184
same,glycan array binding signal (z-score),[22],-0.212

# Reference: the supplement of paper PMC8728848
